No constants are given. Whether binding was seen depends on the method and setting. For part of these data: Binding seen in cells or lysates may run through a third protein. Some results given as binding are weak or reduced against the parent protein; the word gives no strength. For part of these data: Tags and fused reporters may be left off the sequences shown.
How the values were obtained:
[1] = target: T1, asparagine synthetase (ASNS), endogenous (human (endogenous in HGC27 and AGS)) (UniProt P08243); assay: co-IP; AGS cell lysate (M-PER buffer); NEK8 or ASNS monoclonal antibody with Protein G beads, 4 °C, 4-5 h; homologous IgG as blank control; Western blot
T1 sequence: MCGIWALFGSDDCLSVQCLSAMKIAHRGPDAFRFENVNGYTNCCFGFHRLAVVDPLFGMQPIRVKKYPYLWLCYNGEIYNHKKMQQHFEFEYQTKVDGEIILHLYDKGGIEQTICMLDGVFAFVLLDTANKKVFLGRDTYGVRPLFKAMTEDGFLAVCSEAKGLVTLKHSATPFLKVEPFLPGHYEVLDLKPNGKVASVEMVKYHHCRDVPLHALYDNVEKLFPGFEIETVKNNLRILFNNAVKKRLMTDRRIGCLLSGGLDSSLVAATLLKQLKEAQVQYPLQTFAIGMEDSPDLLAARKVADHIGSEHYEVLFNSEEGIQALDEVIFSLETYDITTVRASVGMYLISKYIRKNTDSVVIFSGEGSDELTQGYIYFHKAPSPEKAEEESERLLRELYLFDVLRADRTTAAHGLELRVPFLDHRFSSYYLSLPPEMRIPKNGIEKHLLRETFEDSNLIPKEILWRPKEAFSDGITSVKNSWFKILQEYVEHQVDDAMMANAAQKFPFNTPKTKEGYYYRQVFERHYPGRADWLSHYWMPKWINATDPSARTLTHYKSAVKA

[2] = target: T2, GST-ASNS asparagine synthetase domain (UniProt P08243); assay: pull-down; GST affinity isolation: GST-tagged NEK8 or ASNS proteins on glutathione-Sepharose 4B beads incubated with His-tagged ASNS or NEK8 at 4 °C for five hours; wash with GST binding buffer (2 mM EDTA, 50 mM NaF, 100 mM NaCl, 1% NP-40); immunoblotting; both purified
T2 sequence: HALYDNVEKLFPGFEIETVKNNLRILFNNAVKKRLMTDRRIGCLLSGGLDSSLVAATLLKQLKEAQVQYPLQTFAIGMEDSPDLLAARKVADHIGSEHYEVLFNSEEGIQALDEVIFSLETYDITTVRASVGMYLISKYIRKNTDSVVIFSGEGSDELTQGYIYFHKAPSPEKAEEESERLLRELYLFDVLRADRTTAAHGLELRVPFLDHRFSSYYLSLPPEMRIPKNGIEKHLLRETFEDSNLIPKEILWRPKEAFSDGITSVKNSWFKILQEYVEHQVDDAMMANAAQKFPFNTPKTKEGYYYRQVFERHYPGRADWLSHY

[3] = target: T3, NEK8, endogenous in AGS cells (human (endogenous in AGS)) (UniProt Q86SG6); assay: co-IP; AGS cell lysate (M-PER buffer); NEK8 or ASNS monoclonal antibody with Protein G beads, 4 °C, 4-5 h; homologous IgG as blank control; Western blot
T3 sequence: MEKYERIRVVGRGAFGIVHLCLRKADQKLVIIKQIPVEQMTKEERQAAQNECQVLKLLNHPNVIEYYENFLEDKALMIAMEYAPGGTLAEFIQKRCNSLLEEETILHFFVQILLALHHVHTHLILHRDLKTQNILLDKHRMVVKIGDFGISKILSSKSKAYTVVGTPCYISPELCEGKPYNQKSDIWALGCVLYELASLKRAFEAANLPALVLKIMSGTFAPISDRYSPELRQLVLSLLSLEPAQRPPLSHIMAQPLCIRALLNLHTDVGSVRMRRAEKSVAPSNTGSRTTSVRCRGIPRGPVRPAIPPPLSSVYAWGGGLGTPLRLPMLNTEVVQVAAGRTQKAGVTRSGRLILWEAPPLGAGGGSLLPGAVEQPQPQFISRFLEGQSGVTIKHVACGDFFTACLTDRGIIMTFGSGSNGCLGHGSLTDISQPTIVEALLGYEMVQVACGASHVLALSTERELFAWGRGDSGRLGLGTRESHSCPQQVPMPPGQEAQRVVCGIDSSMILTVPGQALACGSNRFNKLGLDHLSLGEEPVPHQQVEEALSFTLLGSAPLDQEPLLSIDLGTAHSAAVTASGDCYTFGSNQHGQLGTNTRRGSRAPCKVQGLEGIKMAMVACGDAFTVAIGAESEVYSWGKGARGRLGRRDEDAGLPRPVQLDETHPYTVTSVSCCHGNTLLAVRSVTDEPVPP

[4] = target: T4, NEK8 (partner in the co-immunoprecipitation with ASNS-WT and ASNS-S349A) (UniProt Q86SG6); assay: co-IP; lysates of GC cells expressing WT-ASNS/Flag-ASNS or ASNS-S349A/Flag-ASNS-S349A; Western blot; cell line and precipitating antibody not given
T4 sequence: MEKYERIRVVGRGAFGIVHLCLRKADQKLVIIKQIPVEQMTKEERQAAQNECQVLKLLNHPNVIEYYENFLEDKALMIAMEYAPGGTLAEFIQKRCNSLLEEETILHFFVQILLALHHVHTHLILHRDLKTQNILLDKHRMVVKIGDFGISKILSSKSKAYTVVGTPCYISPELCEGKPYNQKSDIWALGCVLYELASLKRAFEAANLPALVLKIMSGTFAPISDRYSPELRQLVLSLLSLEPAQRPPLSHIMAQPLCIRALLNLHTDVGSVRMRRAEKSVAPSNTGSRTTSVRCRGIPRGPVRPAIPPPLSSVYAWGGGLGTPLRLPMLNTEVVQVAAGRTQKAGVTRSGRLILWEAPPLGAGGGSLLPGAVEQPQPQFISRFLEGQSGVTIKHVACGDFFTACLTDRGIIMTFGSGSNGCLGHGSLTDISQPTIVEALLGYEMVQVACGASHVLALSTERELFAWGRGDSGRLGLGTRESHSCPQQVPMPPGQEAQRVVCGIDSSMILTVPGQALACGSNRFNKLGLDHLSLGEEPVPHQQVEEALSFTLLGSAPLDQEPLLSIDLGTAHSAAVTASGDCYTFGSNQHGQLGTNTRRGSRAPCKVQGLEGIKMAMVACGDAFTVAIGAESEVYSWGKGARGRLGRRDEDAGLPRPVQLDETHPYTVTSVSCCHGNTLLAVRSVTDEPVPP

GST-NEK8 kinase domain = target: T5, GST-NEK8 kinase domain (UniProt Q86SG6); assay: pull-down; GST affinity isolation: GST-tagged NEK8 or ASNS proteins on glutathione-Sepharose 4B beads incubated with His-tagged ASNS or NEK8 at 4 °C for five hours; wash with GST binding buffer (2 mM EDTA, 50 mM NaF, 100 mM NaCl, 1% NP-40); immunoblotting; both purified
T5 sequence: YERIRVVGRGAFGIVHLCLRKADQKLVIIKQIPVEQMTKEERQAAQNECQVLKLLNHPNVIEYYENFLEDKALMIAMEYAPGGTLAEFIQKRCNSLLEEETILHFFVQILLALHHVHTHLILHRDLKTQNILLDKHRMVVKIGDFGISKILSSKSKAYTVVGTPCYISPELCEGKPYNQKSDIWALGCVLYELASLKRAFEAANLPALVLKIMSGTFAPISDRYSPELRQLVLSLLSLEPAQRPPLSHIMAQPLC

B1: NEK8, endogenous in AGS cells (enzyme, UniProt Q86SG6 1-692)
chain: MEKYERIRVVGRGAFGIVHLCLRKADQKLVIIKQIPVEQMTKEERQAAQNECQVLKLLNHPNVIEYYENFLEDKALMIAMEYAPGGTLAEFIQKRCNSLLEEETILHFFVQILLALHHVHTHLILHRDLKTQNILLDKHRMVVKIGDFGISKILSSKSKAYTVVGTPCYISPELCEGKPYNQKSDIWALGCVLYELASLKRAFEAANLPALVLKIMSGTFAPISDRYSPELRQLVLSLLSLEPAQRPPLSHIMAQPLCIRALLNLHTDVGSVRMRRAEKSVAPSNTGSRTTSVRCRGIPRGPVRPAIPPPLSSVYAWGGGLGTPLRLPMLNTEVVQVAAGRTQKAGVTRSGRLILWEAPPLGAGGGSLLPGAVEQPQPQFISRFLEGQSGVTIKHVACGDFFTACLTDRGIIMTFGSGSNGCLGHGSLTDISQPTIVEALLGYEMVQVACGASHVLALSTERELFAWGRGDSGRLGLGTRESHSCPQQVPMPPGQEAQRVVCGIDSSMILTVPGQALACGSNRFNKLGLDHLSLGEEPVPHQQVEEALSFTLLGSAPLDQEPLLSIDLGTAHSAAVTASGDCYTFGSNQHGQLGTNTRRGSRAPCKVQGLEGIKMAMVACGDAFTVAIGAESEVYSWGKGARGRLGRRDEDAGLPRPVQLDETHPYTVTSVSCCHGNTLLAVRSVTDEPVPP
binding [1]: binds

B2: His-NEK8 (enzyme, UniProt Q86SG6 1-692)
chain: MEKYERIRVVGRGAFGIVHLCLRKADQKLVIIKQIPVEQMTKEERQAAQNECQVLKLLNHPNVIEYYENFLEDKALMIAMEYAPGGTLAEFIQKRCNSLLEEETILHFFVQILLALHHVHTHLILHRDLKTQNILLDKHRMVVKIGDFGISKILSSKSKAYTVVGTPCYISPELCEGKPYNQKSDIWALGCVLYELASLKRAFEAANLPALVLKIMSGTFAPISDRYSPELRQLVLSLLSLEPAQRPPLSHIMAQPLCIRALLNLHTDVGSVRMRRAEKSVAPSNTGSRTTSVRCRGIPRGPVRPAIPPPLSSVYAWGGGLGTPLRLPMLNTEVVQVAAGRTQKAGVTRSGRLILWEAPPLGAGGGSLLPGAVEQPQPQFISRFLEGQSGVTIKHVACGDFFTACLTDRGIIMTFGSGSNGCLGHGSLTDISQPTIVEALLGYEMVQVACGASHVLALSTERELFAWGRGDSGRLGLGTRESHSCPQQVPMPPGQEAQRVVCGIDSSMILTVPGQALACGSNRFNKLGLDHLSLGEEPVPHQQVEEALSFTLLGSAPLDQEPLLSIDLGTAHSAAVTASGDCYTFGSNQHGQLGTNTRRGSRAPCKVQGLEGIKMAMVACGDAFTVAIGAESEVYSWGKGARGRLGRRDEDAGLPRPVQLDETHPYTVTSVSCCHGNTLLAVRSVTDEPVPP
binding [2]: binds

B3: asparagine synthetase (ASNS), endogenous (enzyme, UniProt P08243 1-561)
chain: MCGIWALFGSDDCLSVQCLSAMKIAHRGPDAFRFENVNGYTNCCFGFHRLAVVDPLFGMQPIRVKKYPYLWLCYNGEIYNHKKMQQHFEFEYQTKVDGEIILHLYDKGGIEQTICMLDGVFAFVLLDTANKKVFLGRDTYGVRPLFKAMTEDGFLAVCSEAKGLVTLKHSATPFLKVEPFLPGHYEVLDLKPNGKVASVEMVKYHHCRDVPLHALYDNVEKLFPGFEIETVKNNLRILFNNAVKKRLMTDRRIGCLLSGGLDSSLVAATLLKQLKEAQVQYPLQTFAIGMEDSPDLLAARKVADHIGSEHYEVLFNSEEGIQALDEVIFSLETYDITTVRASVGMYLISKYIRKNTDSVVIFSGEGSDELTQGYIYFHKAPSPEKAEEESERLLRELYLFDVLRADRTTAAHGLELRVPFLDHRFSSYYLSLPPEMRIPKNGIEKHLLRETFEDSNLIPKEILWRPKEAFSDGITSVKNSWFKILQEYVEHQVDDAMMANAAQKFPFNTPKTKEGYYYRQVFERHYPGRADWLSHYWMPKWINATDPSARTLTHYKSAVKA
binding [3]: binds

B4: Flag-ASNS-S349A (enzyme, UniProt P08243 1-561)
chain: MCGIWALFGSDDCLSVQCLSAMKIAHRGPDAFRFENVNGYTNCCFGFHRLAVVDPLFGMQPIRVKKYPYLWLCYNGEIYNHKKMQQHFEFEYQTKVDGEIILHLYDKGGIEQTICMLDGVFAFVLLDTANKKVFLGRDTYGVRPLFKAMTEDGFLAVCSEAKGLVTLKHSATPFLKVEPFLPGHYEVLDLKPNGKVASVEMVKYHHCRDVPLHALYDNVEKLFPGFEIETVKNNLRILFNNAVKKRLMTDRRIGCLLSGGLDSSLVAATLLKQLKEAQVQYPLQTFAIGMEDSPDLLAARKVADHIGSEHYEVLFNSEEGIQALDEVIFSLETYDITTVRASVGMYLIAKYIRKNTDSVVIFSGEGSDELTQGYIYFHKAPSPEKAEEESERLLRELYLFDVLRADRTTAAHGLELRVPFLDHRFSSYYLSLPPEMRIPKNGIEKHLLRETFEDSNLIPKEILWRPKEAFSDGITSVKNSWFKILQEYVEHQVDDAMMANAAQKFPFNTPKTKEGYYYRQVFERHYPGRADWLSHYWMPKWINATDPSARTLTHYKSAVKA
binding [4]: no binding

B5: Flag-ASNS (wild type) (enzyme, UniProt P08243 1-561)
chain: MCGIWALFGSDDCLSVQCLSAMKIAHRGPDAFRFENVNGYTNCCFGFHRLAVVDPLFGMQPIRVKKYPYLWLCYNGEIYNHKKMQQHFEFEYQTKVDGEIILHLYDKGGIEQTICMLDGVFAFVLLDTANKKVFLGRDTYGVRPLFKAMTEDGFLAVCSEAKGLVTLKHSATPFLKVEPFLPGHYEVLDLKPNGKVASVEMVKYHHCRDVPLHALYDNVEKLFPGFEIETVKNNLRILFNNAVKKRLMTDRRIGCLLSGGLDSSLVAATLLKQLKEAQVQYPLQTFAIGMEDSPDLLAARKVADHIGSEHYEVLFNSEEGIQALDEVIFSLETYDITTVRASVGMYLISKYIRKNTDSVVIFSGEGSDELTQGYIYFHKAPSPEKAEEESERLLRELYLFDVLRADRTTAAHGLELRVPFLDHRFSSYYLSLPPEMRIPKNGIEKHLLRETFEDSNLIPKEILWRPKEAFSDGITSVKNSWFKILQEYVEHQVDDAMMANAAQKFPFNTPKTKEGYYYRQVFERHYPGRADWLSHYWMPKWINATDPSARTLTHYKSAVKA
binding [4]: binds

B6: His-tagged ASNS (enzyme, UniProt P08243 1-561)
chain: MCGIWALFGSDDCLSVQCLSAMKIAHRGPDAFRFENVNGYTNCCFGFHRLAVVDPLFGMQPIRVKKYPYLWLCYNGEIYNHKKMQQHFEFEYQTKVDGEIILHLYDKGGIEQTICMLDGVFAFVLLDTANKKVFLGRDTYGVRPLFKAMTEDGFLAVCSEAKGLVTLKHSATPFLKVEPFLPGHYEVLDLKPNGKVASVEMVKYHHCRDVPLHALYDNVEKLFPGFEIETVKNNLRILFNNAVKKRLMTDRRIGCLLSGGLDSSLVAATLLKQLKEAQVQYPLQTFAIGMEDSPDLLAARKVADHIGSEHYEVLFNSEEGIQALDEVIFSLETYDITTVRASVGMYLISKYIRKNTDSVVIFSGEGSDELTQGYIYFHKAPSPEKAEEESERLLRELYLFDVLRADRTTAAHGLELRVPFLDHRFSSYYLSLPPEMRIPKNGIEKHLLRETFEDSNLIPKEILWRPKEAFSDGITSVKNSWFKILQEYVEHQVDDAMMANAAQKFPFNTPKTKEGYYYRQVFERHYPGRADWLSHYWMPKWINATDPSARTLTHYKSAVKA
binding (GST-NEK8 kinase domain): binds

— article PMC11702068, “NEK8 promotes the progression of gastric cancer by reprogramming asparagine metabolism” (Molecular Medicine, 2025)
